# Laboratory results reported in the supplement of paper PMC4166925.
# ± gives the standard deviation of the averaged measurements. Over roughly 33,000 sequences, “E-score (dimensionless, -0.5 to 0.5)” has its median near -0.046; the highest 2% begin near 0.36. The list shows a part of the results.
# System: T1, SpTbr T-box DNA-binding domain (GST fusion)
# T1 sequence: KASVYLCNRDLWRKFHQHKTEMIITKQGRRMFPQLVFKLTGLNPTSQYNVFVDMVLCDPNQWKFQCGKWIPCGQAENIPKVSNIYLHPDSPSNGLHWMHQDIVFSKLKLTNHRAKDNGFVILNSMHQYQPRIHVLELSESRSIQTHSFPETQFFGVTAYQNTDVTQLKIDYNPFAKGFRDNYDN
# Assay: PBM E-score of 8-mer (E-score (dimensionless, -0.5 to 0.5)); Tbr is Tbrain of the sea star Patiria miniata (Pm) or the sea urchin Strongylocentrotus purpuratus (Sp); higher = stronger binding preference; most listed sequences are background and not binding sites
# Conditions: the construct has about 5 more residues each side
# Outline: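 Each ungapped 8-mer received an enrichment E-score from the Universal PBM Analysis Suite, averaged over duplicate arrays. The proteins were Tbr T-box DNA-binding domains, covering the whole T-box plus about five flanking residues, fused to GST and expressed in BL21 E. coli at 20 °C before glutathione affinity purification. Universal Agilent oligonucleotide arrays were made double-stranded by primer extension and incubated with 200 nM protein in PBS (pH 7.5). The arrays were then scanned and quantified, and every 8-mer was scored from probe intensities.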
row,Sequence,PBM E-score of 8-mer
1,CCCTCGCC,-0.0707 ± 0.054
2,ATCGATTG,-0.0013 ± 0.0092
3,AACGCCAG,0.0487 ± 0.017
4,GCAAGGGC,-0.278 ± 0.006
5,CCGGCACC,0.28 ± 0.0067
6,CTTATGCC,-0.11 ± 0.018
7,CACGCGCG,0.313 ± 0.059
8,CATCCCGG,-0.301 ± 0.03
9,ACCTGTAG,0.0967 ± 0.048
10,GTGGCAGA,-0.0126 ± 0.032
11,ATGTGCCG,0.175 ± 0.032
12,ACAAGAAG,-0.17 ± 0.019
13,ATAAGAGG,-0.103 ± 0.051
14,GAACATGA,-0.126 ± 0.035
15,CCGCTTAC,-0.0299 ± 0.039
16,CGAAATTA,0.0611 ± 0.085
17,CACGACCA,0.0842 ± 0.067
18,CTACCTGC,-0.023 ± 0.023
19,ATCCGAGA,-0.0813 ± 0.00083
20,AGGTATAG,-0.139 ± 0.015
21,GCGTAGGA,-0.0865 ± 0.046
22,CTGAACAC,-0.0318 ± 0.035

row,Sequence,PBM E-score of 8-mer
1,AGCCATCC,-0.152 ± 0.081
2,AGCTGGGA,-0.0684 ± 0.039
3,CACAGCCA,0.064 ± 0.088
4,AGGCCGTC,-0.137 ± 0.11
5,GAGTACCC,-0.0313 ± 0.076
6,CGCCCAGC,0.137 ± 0.1
7,GCAACGCC,0.208 ± 0.027
8,ATATTAAG,-0.116 ± 0.036
9,AAAACTTT,0.0646 ± 0.092
10,AACGGCCA,0.0429 ± 0.043
11,CACTGGTC,-0.163 ± 0.012
12,AAATGACC,-0.00341 ± 0.037
13,CGGTTACC,-0.126 ± 0.0074
14,GCGTCAAA,0.31 ± 0.029
15,ACACGCGT,0.236 ± 0.0033
16,AGTTGCTC,-0.00079 ± 0.059
17,CGAAACGC,-0.00119 ± 0.03
18,AGTAGCGG,-0.0382 ± 0.078
19,GAATGCCA,-0.0123 ± 0.0072
20,GGCCTAAA,-0.138 ± 0.069
21,ACAGACAG,0.00634 ± 0.093
22,ACCAGTGG,-0.147 ± 0.026

row,Sequence,PBM E-score of 8-mer
1,ACTGTCGA,0.202 ± 0.031
2,GACGTCGA,-0.113 ± 0.019
3,ATCCTTTC,-0.252 ± 0.012
4,GGCGGGGA,-0.0765 ± 0.031
5,CCGATCTA,-0.191 ± 0.032
6,ACAGTGGT,0.0138 ± 0.052
7,AACAGTGT,0.217 ± 0.024
8,CGCGACAA,0.309 ± 0.0049
9,AGCCACAT,-0.123 ± 0.024
10,CCCATTTA,-0.00609 ± 0.031
11,CACAAGCC,-0.00774 ± 0.031
12,CGACGATC,0.0321 ± 0.031
13,ACGTCACT,0.183 ± 0.04
14,CTCACTTC,0.276 ± 0.015
15,GATTTGGC,0.199 ± 0.033
16,AGCATAGA,-0.0143 ± 0.0077
17,ATGCCCGA,-0.0352 ± 0.056
18,TAATATTA,-0.13 ± 0.033
19,CCTCTCGC,0.235 ± 0.031
20,ATCGCAAT,0.141 ± 0.0092
21,CCACATAA,-0.114 ± 0.071
22,CGGCGCAA,-0.107 ± 0.068

row,Sequence,PBM E-score of 8-mer
1,CGTCAAGA,0.157 ± 0.12
2,TAGACCTA,-0.237 ± 0.024
3,CTTCTTTC,-0.199 ± 0.037
4,GCGCGAGA,0.3663 ± 0.0029
5,GCTTAAGC,-0.305 ± 0.013
6,CTCGGATA,-0.169 ± 0.043
7,ATGGGGTC,-0.16 ± 0.023
8,TGAGGTAA,-0.193 ± 0.013
9,CGTAAACC,-0.0335 ± 0.11
10,CGAGGGCC,-0.127 ± 0.057
11,AAAGGAGG,-0.154 ± 0.071
12,CAATAATC,-0.0725 ± 0.12
13,ATGATCAT,-0.147 ± 0.0035
14,GATACACC,0.157 ± 0.088
15,AGGCCGGA,-0.223 ± 0.018
16,ACGAACGT,0.0948 ± 0.012
17,CATAGACG,-0.00924 ± 0.026
18,GAAGTCTC,0.0123 ± 0.037
19,CGGAAACA,-0.0108 ± 0.032
20,ATCCCGAG,-0.121 ± 0.061
21,ATTAGGCC,-0.273 ± 0.07
22,GAGGAATA,-0.238 ± 0.027

row,Sequence,PBM E-score of 8-mer
1,CATGTTAA,0.0432 ± 0.11
2,GCCGCGAC,0.143 ± 0.035
3,AATCATCG,0.0375 ± 0.043
4,GGGCGACA,0.277 ± 0.0043
5,TAGAATGA,0.0442 ± 0.074
6,ACCAGTCC,-0.1 ± 0.11
7,ACTTTTTG,0.227 ± 0.033
8,GTACTACA,-0.175 ± 0.086
9,AGCTACTA,-0.0235 ± 0.013
10,GACTTATC,-0.0784 ± 0.11
11,CACTTGAC,0.282 ± 0.061
12,CGGTCCAC,-0.0351 ± 0.019
13,AAGAGCCG,-0.148 ± 0.051
14,GGGCACGA,-0.118 ± 0.0048
15,GCCCCGGC,-0.339 ± 0.04
16,AGAGACGC,-0.15 ± 0.037
17,CGGTTGAA,-0.126 ± 0.045
18,GCTATGCA,-0.166 ± 0.02
19,ATCGGAGG,-0.192 ± 0.081
20,ACATGCGG,-0.0496 ± 0.0084
21,AGTGGAGG,0.0988 ± 0.056
22,GTACAGGA,-0.256 ± 0.0053
